Data from PubChem BioAssay AID256 (DTP/NCI, 2004).
Values joined by “and” are separate entries in the source; they are usually repeats but may differ in a detail not shown here. Equal entries are not always repeated. Further values from the same series stand in other lists. Toxic doses and inconclusive results are not listed.

Tested on: CD2F1 mice, L1210 leukemia ip, survival T/C
Experiment: NCI In Vivo Anticancer Drug Screen. Data for tumor model L1210 Leukemia (intraperitoneal) in CD2F1 (CDF1) mice
Conditions: higher = longer survival
How it was run: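 Each value reflects a quotient of treated over vehicle control outcomes in mice with a transplanted tumor.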

Which results are given for `O=P1(N(CCCl)CCCl)NCCCO1` (configuration not stated)?
T/C (endpoint: mean survival time, dose: 6.25 mg/kg/injection, schedule: Q01DX009 (ip), vehicle: saline): 101 % of control and 111 % of control; T/C (endpoint: mean survival time, dose: 10.0 mg/kg/injection, schedule: Q01DX009 (ip), vehicle: saline): 104 % of control; T/C (endpoint: mean survival time, dose: 12.5 mg/kg/injection, schedule: Q01DX005 (ip), vehicle: water): 109 % of control; T/C (endpoint: mean survival time, dose: 23.3 mg/kg/injection, schedule: Q01DX001 (ip), vehicle: water): 109 % of control; T/C (endpoint: mean survival time, dose: 25.0 mg/kg/injection, schedule: Q01DX001 (ip), vehicle: DMSO): 102 % of control; T/C (endpoint: mean survival time, dose: 25.0 mg/kg/injection, schedule: Q01DX001 (ip), vehicle: other): 104 % of control; T/C (endpoint: mean survival time, dose: 25.0 mg/kg/injection, schedule: Q04DX003 (ip), vehicle: saline): 106 % of control; T/C (endpoint: mean survival time, dose: 31.2 mg/kg/injection, schedule: Q01DX001 (ip), vehicle: water): 108 % of control and 110 % of control; T/C (endpoint: mean survival time, dose: 31.25 mg/kg/injection, schedule: Q01DX001 (ip), vehicle: saline): 106 % of control; T/C (endpoint: mean survival time, dose: 31.3 mg/kg/injection, schedule: Q01DX001 (ip), vehicle: DMSO): 107 % of control; T/C (endpoint: mean survival time, dose: 31.3 mg/kg/injection, schedule: Q01DX001 (ip), vehicle: saline): 106 % of control; T/C (endpoint: mean survival time, dose: 40.0 mg/kg/injection, schedule: Q01DX001 (ip), vehicle: saline): 109 % of control; T/C (endpoint: mean survival time, dose: 50.0 mg/kg/injection, schedule: Q01DX001 (ip), vehicle: other): 109 % of control; T/C (endpoint: mean survival time, dose: 80.0 mg/kg/injection, schedule: Q04DX003 (ip), vehicle: saline): 231 % of control; T/C (endpoint: mean survival time, dose: 100.0 mg/kg/injection, schedule: Q01DX009 (ip), vehicle: saline): 94 % of control and 98 % of control; T/C (endpoint: mean survival time, dose: 100.0 mg/kg/injection, schedule: Q04DX003 (ip), vehicle: saline): 212 % of control; T/C (endpoint: mean survival time, dose: 120.0 mg/kg/injection, schedule: Q04DX003 (ip), vehicle: water): 235 % of control; T/C (endpoint: mean survival time, dose: 160.0 mg/kg/injection, schedule: Q01DX009 (ip), vehicle: saline): 94 % of control; T/C (endpoint: mean survival time, dose: 160.0 mg/kg/injection, schedule: Q04DX003 (ip), vehicle: saline): 308 % of control; T/C (endpoint: mean survival time, dose: 180.0 mg/kg/injection, schedule: Q01DX001 (ip), vehicle: saline): 215 % of control; T/C (endpoint: mean survival time, dose: 200.0 mg/kg/injection, schedule: Q01DX001 (ip), vehicle: DMSO): 211 % of control and 400 % of control and 407 % of control; T/C (endpoint: mean survival time, dose: 200.0 mg/kg/injection, schedule: Q01DX001 (ip), vehicle: other): 294 % of control; T/C (endpoint: mean survival time, dose: 200.0 mg/kg/injection, schedule: Q01DX005 (ip), vehicle: water): 86 % of control; T/C (endpoint: mean survival time, dose: 200.0 mg/kg/injection, schedule: Q## X001 (ip), vehicle: saline): 248 % of control; T/C (endpoint: mean survival time, dose: 250.0 mg/kg/injection, schedule: Q01DX001 (ip), vehicle: Klucel (hydroxypropylcellulose) (HPC)): 223 % of control and 290 % of control; T/C (endpoint: mean survival time, dose: 250.0 mg/kg/injection, schedule: Q01DX001 (ip), vehicle: saline with Tween-80): 321 % of control; T/C (endpoint: mean survival time, dose: 267.0 mg/kg/injection, schedule: Q01DX001 (ip), vehicle: saline): 507 % of control; T/C (endpoint: mean survival time, dose: 280.0 mg/kg/injection, schedule: Q01DX001 (ip), vehicle: saline): 236 % of control; T/C (endpoint: mean survival time, dose: 300.0 mg/kg/injection, schedule: Q01DX001 (ip), vehicle: water): 216 % of control and 248 % of control (2×); T/C (endpoint: mean survival time, dose: 400.0 mg/kg/injection, schedule: Q01DX001 (ip), vehicle: DMSO): 232 % of control and 626 % of control and 653 % of control; T/C (endpoint: mean survival time, dose: 400.0 mg/kg/injection, schedule: Q01DX001 (ip), vehicle: other): 282 % of control; T/C (endpoint: mean survival time, dose: 400.0 mg/kg/injection, schedule: Q## X001 (ip), vehicle: saline): 297 % of control; T/C (endpoint: mean survival time, dose: 450.0 mg/kg/injection, schedule: Q01DX001 (ip), vehicle: saline): 314 % of control; T/C (endpoint: median survival time, dose: 6.25 mg/kg/injection, schedule: Q01DX005 (ip), vehicle: saline): 107 % of control; T/C (endpoint: median survival time, dose: 10.0 mg/kg/injection, schedule: Q01DX009 (ip), vehicle: water): 107 % of control; T/C (endpoint: median survival time, dose: 12.5 mg/kg/injection, schedule: Q01DX005 (ip), vehicle: saline): 110 % of control; T/C (endpoint: median survival time, dose: 16.2 mg/kg/injection, schedule: Q10HX004 (ip), vehicle: saline): 102 % of control; T/C (endpoint: median survival time, dose: 25.0 mg/kg/injection, schedule: Q01DX001 (ip), vehicle: saline): 111 % of control; T/C (endpoint: median survival time, dose: 25.0 mg/kg/injection, schedule: Q01DX001 (ip), vehicle: water): 111 % of control; T/C (endpoint: median survival time, dose: 27.0 mg/kg/injection, schedule: Q10HX004 (ip), vehicle: saline): 106 % of control; T/C (endpoint: median survival time, dose: 50.0 mg/kg/injection, schedule: Q03DX003 (ip), vehicle: saline): 233 % of control; T/C (endpoint: median survival time, dose: 100.0 mg/kg/injection, schedule: Q01DX005 (ip), vehicle: saline): 317 % of control; T/C (endpoint: median survival time, dose: 100.0 mg/kg/injection, schedule: Q03DX003 (ip), vehicle: saline): 555 % of control; T/C (endpoint: median survival time, dose: 100.0 mg/kg/injection, schedule: Q07DX003 (sc), vehicle: saline): 226 % of control and 237 % of control; T/C (endpoint: median survival time, dose: 108.0 mg/kg/injection, schedule: Q01DX001 (ip), vehicle: saline): 98 % of control; T/C (endpoint: median survival time, dose: 125.0 mg/kg/injection, schedule: Q01DX001 (ip), vehicle: water): 289 % of control; T/C (endpoint: median survival time, dose: 125.0 mg/kg/injection, schedule: Q10HX004 (ip), vehicle: saline): 233 % of control; T/C (endpoint: median survival time, dose: 140.0 mg/kg/injection, schedule: Q07DX003 (ip), vehicle: saline): 295 % of control; T/C (endpoint: median survival time, dose: 150.0 mg/kg/injection, schedule: Q07DX003 (sc), vehicle: saline): 297 % of control and 312 % of control; T/C (endpoint: median survival time, dose: 180.0 mg/kg/injection, schedule: Q01DX001 (ip), vehicle: saline): 103 % of control; T/C (endpoint: median survival time, dose: 180.0 mg/kg/injection, schedule: Q01DX001 (iv), vehicle: saline): 214 % of control; T/C (endpoint: median survival time, dose: 200.0 mg/kg/injection, schedule: Q07DX003 (ip), vehicle: saline): 287 % of control; T/C (endpoint: median survival time, dose: 225.0 mg/kg/injection, schedule: Q01DX001 (ip), vehicle: saline): 410 % of control; T/C (endpoint: median survival time, dose: 225.0 mg/kg/injection, schedule: Q07DX003 (sc), vehicle: saline): 356 % of control and 357 % of control; T/C (endpoint: median survival time, dose: 250.0 mg/kg/injection, schedule: Q01DX001 (ip), vehicle: water): 361 % of control and 523 % of control; T/C (endpoint: median survival time, dose: 260.0 mg/kg/injection, schedule: Q07DX003 (ip), vehicle: saline): 306 % of control; T/C (endpoint: median survival time, dose: 275.0 mg/kg/injection, schedule: Q01DX001 (ip), vehicle: saline): 410 % of control; T/C (endpoint: median survival time, dose: 300.0 mg/kg/injection, schedule: Q01DX001 (iv), vehicle: saline): 388 % of control; T/C (endpoint: median survival time, dose: 400.0 mg/kg/injection, schedule: Q01DX001 (ip), vehicle: water): 89 % of control; T/C (endpoint: median survival time, dose: 450.0 mg/kg/injection, schedule: Q01DX001 (ip), vehicle: saline): 211 % of control; T/C (endpoint: median survival time, dose: 500.0 mg/kg/injection, schedule: Q01DX001 (ip), vehicle: water): 523 % of control; T/C (endpoint: median survival time, dose: 500.0 mg/kg/injection, schedule: Q01DX001 (iv), vehicle: saline): 100 % of control
